Experimental data reported in publication PMC8185084.
No constants are given. Whether binding was seen depends on the method and setting. Binding seen in cells or lysates may run through a third protein. Some entries that bind do so weakly or less than the wild type. Sequences can lack the tags named with a protein.

Sequences of proteins named here, by UniProt entry; tags and fusion partners are left off.
UniProt Q60749: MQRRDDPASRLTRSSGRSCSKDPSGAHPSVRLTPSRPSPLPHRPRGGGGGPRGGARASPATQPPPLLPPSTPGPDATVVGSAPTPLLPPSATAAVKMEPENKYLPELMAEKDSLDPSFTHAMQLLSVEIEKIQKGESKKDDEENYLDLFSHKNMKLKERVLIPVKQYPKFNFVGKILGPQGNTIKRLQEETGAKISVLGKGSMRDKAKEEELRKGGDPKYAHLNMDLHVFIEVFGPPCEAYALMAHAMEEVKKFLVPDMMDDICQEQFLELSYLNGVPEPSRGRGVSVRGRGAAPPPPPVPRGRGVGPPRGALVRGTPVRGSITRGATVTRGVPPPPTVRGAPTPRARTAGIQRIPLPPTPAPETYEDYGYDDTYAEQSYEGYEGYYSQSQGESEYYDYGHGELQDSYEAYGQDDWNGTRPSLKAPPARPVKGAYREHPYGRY

Biological target: hemagglutinin (HA)-tagged Sam68, full length (UniProt Q60749)
Test: co-IP; 293T cells co-transfected with Flag-CRTC2 and HA-tagged WT Sam68 or truncation mutants; 48 h later Sam68 immunoprecipitated with anti-HA, CRTC2 detected with anti-Flag

B1: FLAG-tagged CRTC2 (protein, UniProt Q3U182 1-692)
chain: MATSGANGPGSATASASNPRKFSEKIALQKQRQAEETAAFEEVMMDIGSTRLQAQKLRLAYTRSSHYGGSLPNVNQIGCGLAEFQSPLHSPLDSSRSTRHHGLVERVQRDARRMVSPLRRYPRHIDSSPYSPAYLSPPPESGWRRMMPWGNLPAEKGQLFRLPSALNRTSSDSALHTSVMNPNPQDTYPGPTPPSVLPSRRGGGFLDGEMDAKVPAIEENVVDDKHLLKPWDAKKLSSSSSRPRSCEVPGINIFPSPDQPANVPVLPPAMNTGGSLPDLTNLHFPPPLPTPLDPEETVYPSLSGGNSTTNLTHTMTHLGISGGLGLGPSYDVPGLHSPLSHPSLQSSLSNPNLQASLSSPQPQLQGSHSHPSLPASSLAHHALPTTSLGHPSLSAPALSSSSSSSSTSSPVLSAPPYPASTPGASPRHRRVPLSPLSLPAGPADARRSQQQLPKQFSPTMSPTLSSITQGVPLDTSKLPTDQRLPPYPYSPPSLVIPTHPPTPKSLQQLPSQACLVQPSGGQPPGRQPHYGALYPPGSSGHGQQPYHRPINDFSLGNLEQFNMESPSTSLVLDPPAFSEGPGFLGSEGSMSGPQDPHVLNHQNLTHCSRHGSGPNIILTGDSSPGFSKEIAAALAGVPGFEVSASGLELGLGLEDELRMEPLGLEGLTMLSDPCALLPDPAVEDSFRSDRLQ
binding: binds
